The other results are listed elsewhere or left out. This is a noisy data set.
B1: L69P L69P (peptide)
chain: AAFKPEAYAGPEAAAPGLPEPRAELGRAPSPAKCASAFPAA
B2: S403L S403L (peptide)
chain: GKGTPLGTPATSPPPAPLCHLDDYVHISLPQATVTPPRKEE
B3: Q588K Q588K (peptide)
chain: APLSAPLSAPQAVHCPSIIWKAPKGQPPVPHEIPTSMEFQE
B4: D406V D406V (peptide)
chain: RSPPEEPPDFCCPKCQYQAPVMDTLQIHVMECIE
B5: P59Q P59Q (peptide)
chain: SLDQKKRGGHKACCLLTPPPQPLFPPPFFRGGRSPLLSPDM
B6: G38R G38R (peptide)
chain: PGGGPWGGAAYPPPPSMPPIRLDNVATYAGQFNQDYLSGMA
B7: P297S P297S (peptide)
chain: LPSARPLSLDGADSAPPPPASSAPPPHHSQGFSVDNIMTSL
B8: P245L P245L (peptide)
chain: PPHLLSCWLPPFPSGPPIIPLPPPICPDSLDDADALGSMLI
B9: R15C R15C (peptide)
chain: MPRGSRSAASRPASRPAAPSCHPPAHPPPSAAAPA
B10: R15G R15G (peptide)
chain: MPRGSRSAASRPASRPAAPSGHPPAHPPPSAAAPA
B11: R15L R15L (peptide)
chain: MPRGSRSAASRPASRPAAPSLHPPAHPPPSAAAPA
B12: R15S R15S (peptide)
chain: MPRGSRSAASRPASRPAAPSSHPPAHPPPSAAAPA
B13: R86K R86K (peptide)
chain: VLLTPPTPLPPPSPPPTASDKGLATPSPSPCPVPRPLAALK
B14: S353A S353A (peptide)
chain: PSFTMANNLPMQPPVPSQTSAYSCMLPTSPSVNGRSYDTYT
B15: P156Q P156Q (peptide)
chain: PKPRERPQIGGTIKQPPSNPQPRPPAEARKKPSEEEAAVAA
B16: H159Y H159Y (peptide)
chain: DATAPAWPPPGEDPGTTPPGYSVPVPATELGSTELVTTKTA
B17: D40G D40G (peptide)
chain: GGPWGGAAYPPPPSMPPIGLGNVATYAGQFNQDYLSGMAAN
B18: R276Y R276Y (peptide)
chain: GDNAHTIKYCPLSKVPPPPAYPPPRSARDGPPGKKLR
B19: R620W R620W (peptide)
chain: SAVLATAPRIDDEIPPPLPVWTPESFIVVEEAGEFSPNVPK
B20: R157S R157S (peptide)
chain: PEKPERTPWMQSPRFSPPPASRLSPPACTLRKHKTNRKPRT

Each binder was assayed against ABL1_SH3__P00519_60_121 (assay: mutation enrichment score (mutant vs wild-type peptide binding to bait); baits are purified protein domains named by gene / domain / UniProt id / residues; peptides come from disordered regions of human proteins; higher = mutation enhances binding relative to wild type). Settings: number of wild-type / mutant comparisons summed (bounds the score): 6; paper call: no_effect; wild-type window: ….
Chain of ABL1_SH3__P00519_60_121 (chain, as listed by the source): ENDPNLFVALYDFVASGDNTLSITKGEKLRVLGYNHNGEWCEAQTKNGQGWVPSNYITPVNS

Binder | mutation enrichment score
B1 | 3
B2 | 4
B3 | -0.16
B4 | 3.5
B5 | -5
B6 | 5.7
B7 | -3.2
B9 | -2
B10 | -2
B11 | -2
B12 | -2
B13 | -4
B14 | -0.71
B15 | -5
B16 | 5
B17 | 1
B19 | 0.66

Each binder was assayed against GABARAPL1_ATG8__Q9H0R8_2_115 in the same assay as above. Settings: number of wild-type / mutant comparisons summed (bounds the score): 12; paper call: no_effect; wild-type window: ….

Binder | mutation enrichment score
B2 | -2.8
B19 | 4.9

What follows are binders tested against GABARAPL2_ATG8__P60520_2_115 in the same assay as above. Settings: number of wild-type / mutant comparisons summed (bounds the score): 12; paper call: no_effect; wild-type window: ….
Chain of GABARAPL2_ATG8__P60520_2_115 (chain, as listed by the source): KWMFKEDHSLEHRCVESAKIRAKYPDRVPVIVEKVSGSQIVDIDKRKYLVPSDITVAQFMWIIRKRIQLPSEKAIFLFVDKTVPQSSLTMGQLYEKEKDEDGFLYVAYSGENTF

Binder | mutation enrichment score
B2 | 2.5

What follows are binders tested against GABARAP_ATG8__O95166_2_115 in the same assay as above. Settings: number of wild-type / mutant comparisons summed (bounds the score): 12; paper call: no_effect; wild-type window: ….
Chain of GABARAP_ATG8__O95166_2_115 (chain, as listed by the source): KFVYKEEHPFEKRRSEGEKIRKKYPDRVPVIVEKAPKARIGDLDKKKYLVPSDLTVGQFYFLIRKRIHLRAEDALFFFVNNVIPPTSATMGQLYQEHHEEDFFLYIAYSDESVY

Binder | mutation enrichment score
B2 | -1.2

These binders were tested against MAP1LC3A_ATG8__Q9H492_2_121 in the same assay as above. Settings: number of wild-type / mutant comparisons summed (bounds the score): 12; paper call: no_effect; wild-type window: ….

Binder | mutation enrichment score
B2 | 3.4

The binders below were run against MAP1LC3B_ATG8__Q9GZQ8_2_119 in the same assay as above. Settings: number of wild-type / mutant comparisons summed (bounds the score): 12; paper call: no_effect; wild-type window: ….

Binder | mutation enrichment score
B2 | 0.58

What follows are binders tested against Intersectin-1_SH3_2_Q15811_913_971 in the same assay as above. Settings: number of wild-type / mutant comparisons summed (bounds the score): 6; paper call: no_effect; wild-type window: ….

Binder | mutation enrichment score
B5 | -1.3
B18 | 2

These binders were tested against FKBP1A_full-length__P62942_1_108, P62942 in the same assay as above. Settings: number of wild-type / mutant comparisons summed (bounds the score): 6; paper call: no_effect; wild-type window: ….
Chain of FKBP1A_full-length__P62942_1_108, P62942 (P62942 whole entry): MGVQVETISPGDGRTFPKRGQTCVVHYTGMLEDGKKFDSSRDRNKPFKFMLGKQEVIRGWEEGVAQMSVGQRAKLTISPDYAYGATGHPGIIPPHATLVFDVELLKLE

Binder | mutation enrichment score
B6 | 2

The binders below were run against ABL1_SH3__P00519_60_121 in the same assay as above. Settings: number of wild-type / mutant comparisons summed (bounds the score): 6; paper call: diminished; wild-type window: ….

Binder | mutation enrichment score
B8 | -6

Same assay, conditions: number of wild-type / mutant comparisons summed (bounds the score): 6; paper call: enhanced; wild-type window: …

Binder | mutation enrichment score
B18 | 6
B20 | 6

These binders were tested against GABARAPL2_ATG8__P60520_2_115 in the same assay as above. Settings: number of wild-type / mutant comparisons summed (bounds the score): 6; paper call: no_effect; wild-type window: ….

Binder | mutation enrichment score
B19 | 3

The binders below were run against GABARAP_ATG8__O95166_2_115 in the same assay as above. Settings: number of wild-type / mutant comparisons summed (bounds the score): 6; paper call: no_effect; wild-type window: ….

Binder | mutation enrichment score
B19 | 3

Each binder was assayed against Intersectin-1_SH3_1_Q15811_740_806 in the same assay as above. Settings: number of wild-type / mutant comparisons summed (bounds the score): 6; paper call: diminished; wild-type window: ….

Binder | mutation enrichment score
B19 | -6

Each binder was assayed against Intersectin-1_SH3_3_Q15811_1002_1060 in the same assay as above. Settings: number of wild-type / mutant comparisons summed (bounds the score): 12; paper call: diminished; wild-type window: ….

Binder | mutation enrichment score
B19 | -8

The binders below were run against Intersectin-1_SH3_5_Q15811_1155_1214 in the same assay as above. Settings: number of wild-type / mutant comparisons summed (bounds the score): 6; paper call: diminished; wild-type window: ….

Binder | mutation enrichment score
B19 | -6

What follows are binders tested against NCK1_SH3_1_P16333_5_60 in the same assay as above. Settings: number of wild-type / mutant comparisons summed (bounds the score): 6; paper call: no_effect; wild-type window: ….

Binder | mutation enrichment score
B19 | 3.4

The binders below were run against Src_SH3__P12931_87_144 in the same assay as above. Settings: number of wild-type / mutant comparisons summed (bounds the score): 12; paper call: no_effect; wild-type window: ….

Binder | mutation enrichment score
B19 | -4.8
